Consider 29 molecules from the supplement of paper PMC11369174, “Proteome-scale characterisation of motif-based interactome rewiring by disease mutations” (Molecular Systems Biology, 2024).

This is one part of the list. Values come from read counts of a selection and are noisy.

The labels stand for the following.
T1: EPHA3_Pkinase__P29320_606_947
T1 chain: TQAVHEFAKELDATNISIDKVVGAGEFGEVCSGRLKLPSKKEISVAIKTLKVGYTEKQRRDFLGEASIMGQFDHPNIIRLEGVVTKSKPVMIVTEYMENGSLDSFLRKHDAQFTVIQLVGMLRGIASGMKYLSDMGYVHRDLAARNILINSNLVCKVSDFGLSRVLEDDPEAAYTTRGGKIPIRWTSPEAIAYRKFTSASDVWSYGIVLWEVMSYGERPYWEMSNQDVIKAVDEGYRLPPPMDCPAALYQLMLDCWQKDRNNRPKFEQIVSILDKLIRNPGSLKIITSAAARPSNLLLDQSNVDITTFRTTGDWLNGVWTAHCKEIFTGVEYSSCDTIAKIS

T2: EPHB2_Pkinase__P29323_604_898
T2 chain: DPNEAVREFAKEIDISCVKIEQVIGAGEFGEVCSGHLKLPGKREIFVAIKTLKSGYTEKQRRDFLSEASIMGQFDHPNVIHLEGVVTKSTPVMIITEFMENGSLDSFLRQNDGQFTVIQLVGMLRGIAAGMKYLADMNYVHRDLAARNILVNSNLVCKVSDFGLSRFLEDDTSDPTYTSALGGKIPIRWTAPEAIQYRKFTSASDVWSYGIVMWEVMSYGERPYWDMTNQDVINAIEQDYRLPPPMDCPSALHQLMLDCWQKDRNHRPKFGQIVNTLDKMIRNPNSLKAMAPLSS

T3: CLTC_Clathrin-propeller__Q00610_1_364
T3 chain: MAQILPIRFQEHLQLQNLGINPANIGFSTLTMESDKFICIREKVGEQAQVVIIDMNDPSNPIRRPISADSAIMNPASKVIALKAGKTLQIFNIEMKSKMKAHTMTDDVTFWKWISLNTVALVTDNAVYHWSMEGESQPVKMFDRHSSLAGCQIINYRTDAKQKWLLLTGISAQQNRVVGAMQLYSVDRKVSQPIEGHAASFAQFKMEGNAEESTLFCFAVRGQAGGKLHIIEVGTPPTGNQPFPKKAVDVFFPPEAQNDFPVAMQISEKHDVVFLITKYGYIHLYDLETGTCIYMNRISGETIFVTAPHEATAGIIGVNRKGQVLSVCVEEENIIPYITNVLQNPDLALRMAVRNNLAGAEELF

T4: CHD1_tandem-chromo__O14646_268_443
T4 chain: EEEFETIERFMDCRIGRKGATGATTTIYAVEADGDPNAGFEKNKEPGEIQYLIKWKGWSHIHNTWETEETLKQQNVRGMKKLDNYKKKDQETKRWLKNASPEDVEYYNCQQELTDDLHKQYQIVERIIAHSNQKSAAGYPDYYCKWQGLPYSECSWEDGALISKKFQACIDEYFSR

T5: CSK21_Pkinase__P68400_1_335
T5 chain: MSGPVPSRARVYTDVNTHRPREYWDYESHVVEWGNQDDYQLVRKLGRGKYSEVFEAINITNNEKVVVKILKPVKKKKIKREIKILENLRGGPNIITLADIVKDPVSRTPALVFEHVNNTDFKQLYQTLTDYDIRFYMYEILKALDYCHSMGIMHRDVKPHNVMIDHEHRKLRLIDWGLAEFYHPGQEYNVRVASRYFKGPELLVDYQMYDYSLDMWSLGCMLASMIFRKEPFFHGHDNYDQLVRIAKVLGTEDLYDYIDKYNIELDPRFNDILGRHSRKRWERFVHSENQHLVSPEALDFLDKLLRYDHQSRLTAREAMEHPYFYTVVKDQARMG

T6: Bub1_TPR__O43683_1_150
T6 chain: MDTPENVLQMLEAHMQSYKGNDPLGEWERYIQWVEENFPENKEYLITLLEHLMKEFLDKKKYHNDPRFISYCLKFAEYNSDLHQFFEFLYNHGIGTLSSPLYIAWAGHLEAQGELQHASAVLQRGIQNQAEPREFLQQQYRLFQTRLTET

One experiment concerns the target BRD4_NET__O60885_601_683. Nature of the experiment: mean normalised NGS count of phage-displayed peptide after selection on bait (% of reads); baits are purified protein domains named by gene / domain / UniProt id / residues; peptides come from disordered regions of human proteins; higher = stronger enrichment / binding. Conditions: replicate selections in which the peptide was seen: 5.
For the molecule WARDRIQQGWTYGIQQ [RYR2 1007-1022 mut Q92736.R1013Q], the “mean normalised NGS count” value stood at 3.29.

Another experiment deals with T1, EPHA3_Pkinase__P29320_606_947. The description is as above. Conditions: replicate selections in which the peptide was seen: 2.
Consider WARDRIQQGWTYGIQQ [RYR2 1007-1022 mut Q92736.R1013Q], for which the “mean normalised NGS count” value is 1.21.

A further experiment has as its target T2, EPHB2_Pkinase__P29323_604_898. The description is as above. As to conditions: replicate selections in which the peptide was seen: 2.
On to WARDRIQQGWTYGIQQ [RYR2 1007-1022 mut Q92736.R1013Q], for which the “mean normalised NGS count” value is 0.183.
On the same count and under the same terms, the same measure for MGPWGWKLRWTVALPL [LDLR 1-16 mut P01130.L15P]: 0.106.

In a further experiment the target is T3, CLTC_Clathrin-propeller__Q00610_1_364. Described as above. As to conditions: replicate selections in which the peptide was seen: 6.
For the molecule SELIELRETTEMLKAQ [NAV3 1625-1640 mut Q8IVL0.I1634T], the “mean normalised NGS count” value turned out to be 0.0528.
SNNLNLLSFEDLTTGG [WRN 312-327 mut Q14191.S323L]: the “mean normalised NGS count” value amounted to 0.0574.
On to NLLSFEDLTTGGVQQK [WRN 316-331 mut Q14191.S323L], for which the “mean normalised NGS count” value was 9.64.
On the same count and under the same terms, the result for VATGNLLDLEEIAKAP [LDLRAP1 207-222 mut Q5SW96.T218I] reads 0.0189; that for NLIDLYGNQGLPPPGL [MITF 260-275 wt], 5.56; that for NLIDLAGNQGLPPPGL [MITF 260-275 mut O75030.Y265C], 1.47.
ANTLPVSGNLIDLAGN [MITF 252-267 mut O75030.Y265C]: the “mean normalised NGS count” value was 0.359.
For ANTLPVSGNLIDLYGN [MITF 252-267 wt], the “mean normalised NGS count” value stood at 1.11.
As for PVSGNLIDLAGNQGLP [MITF 256-271 mut O75030.Y265C], the “mean normalised NGS count” value is 0.038.
On the same count and under the same terms, the result for SNNLNLLSFEDSTTGG [WRN 312-327 wt] reads 0.0773; that for EGDHDLLTFGQAQMNF [BCL11A 40-55 mut Q9H165.C48F], 0.0171.

In the next experiment the target is T4, CHD1_tandem-chromo__O14646_268_443. The description is as above. Conditions: replicate selections in which the peptide was seen: 2.
For QRIRSTATPNVHMVST [ARAF 208-223 mut P10398.S214A], the “mean normalised NGS count” value came out at 4.39.
With RALDFLSRLPSPPPVS [BRCA2 3269-3284 mut P51587.L3279S], the “mean normalised NGS count” value was 0.0324.

Another experiment addresses T5, CSK21_Pkinase__P68400_1_335. The description is as above. As to conditions: replicate selections in which the peptide was seen: 2.
As to FIWVQENIDEIVLQLQ [AKAP9 3547-3562 mut Q99996.I3558V], the “mean normalised NGS count” value amounted to 6.5.
On the same count and under the same terms, the same measure for VFHYFPLTEVGMVETS [GJA8 275-290 mut P48165.S276F]: 0.0848.

In the next experiment the target is BRD4_NET__O60885_601_683. The description is as above. As to conditions: replicate selections in which the peptide was seen: 4.
Sequence of BRD4_NET__O60885_601_683 (chain, as listed by the source): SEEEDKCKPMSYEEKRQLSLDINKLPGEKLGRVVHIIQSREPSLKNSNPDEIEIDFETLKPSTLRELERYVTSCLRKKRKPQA
As for QMEKIPLLRISSADQN [BRCA2 407-422 mut P51587.H415R], the “mean normalised NGS count” value is 0.525.

The target in another experiment is CREBBP_KIX__Q92793_587_673. The description is as above. Conditions: replicate selections in which the peptide was seen: 4.
For LPSDIMDFVQKNTPSM [KMT2A 2845-2860 mut Q03164.L2854Q], the “mean normalised NGS count” value worked out at 0.48.
Consider DQRWALVMQLFQDHGF [CIC 1468-1483 mut Q96RK0.R1471W], for which the “mean normalised NGS count” value stood at 0.509.

The target in another experiment is T3, CLTC_Clathrin-propeller__Q00610_1_364. The description is as above. As to conditions: replicate selections in which the peptide was seen: 5.
As to LTEGLDLISMLTDDAI [DNAH11 3449-3464 mut Q96DT5.T3464I], the “mean normalised NGS count” value amounted to 25.1.

A further experiment addresses CREBBP_KIX__Q92793_587_673. Described as above. Conditions: replicate selections in which the peptide was seen: 6.
Consider LPSDIMDFVLKNTPSM [KMT2A 2845-2860 wt], for which the “mean normalised NGS count” value stood at 28.3.

A further experiment deals with BRD4_NET__O60885_601_683. The description is as above. Conditions: replicate selections in which the peptide was seen: 6.
For the molecule ITNILKRSGEQIWSVS [NALCN 167-182 wt], the “mean normalised NGS count” value is 27.5.
The same measure, in the same setting: the result for QFTTYLHKDYNNLWII [POMT2 372-387 mut Q9UKY4.V373F] reads 8.71.

Another experiment addresses T6, Bub1_TPR__O43683_1_150. Described as above. As to conditions: replicate selections in which the peptide was seen: 3.
Take RQGGSHTLSSFLTFLA [TBXA2R 53-68 mut P21731.R60L]: the “mean normalised NGS count” value was 0.107.

The target in the next experiment is CREBBP_KIX__Q92793_587_673. The description is as above. Conditions: replicate selections in which the peptide was seen: 5.
For DLWKDVDHIVGLDQMA [MYH11 617-632 mut P35749.R624H], the “mean normalised NGS count” value amounted to 0.117.

A further experiment concerns the target T5, CSK21_Pkinase__P68400_1_335. Described as above. As to conditions: replicate selections in which the peptide was seen: 3.
As for MGPWGWKLRWTVALPL [LDLR 1-16 mut P01130.L15P], the “mean normalised NGS count” value came to 0.0423.
Still for that read-out and setting: the result for VILSMVNNRSLDLDSI [KRT77 335-350 mut P04264.D340V] reads 0.478.
Consider KVLRLKEEHGIELSSP [CHD2 1351-1366 mut O14647.P1353L], for which the “mean normalised NGS count” value was found to be 0.273.

A further experiment deals with MK08_Pkinase__P45983_1_363. The experiment is described as above. As to conditions: replicate selections in which the peptide was seen: 2.
Sequence of MK08_Pkinase__P45983_1_363 (chain, as listed by the source): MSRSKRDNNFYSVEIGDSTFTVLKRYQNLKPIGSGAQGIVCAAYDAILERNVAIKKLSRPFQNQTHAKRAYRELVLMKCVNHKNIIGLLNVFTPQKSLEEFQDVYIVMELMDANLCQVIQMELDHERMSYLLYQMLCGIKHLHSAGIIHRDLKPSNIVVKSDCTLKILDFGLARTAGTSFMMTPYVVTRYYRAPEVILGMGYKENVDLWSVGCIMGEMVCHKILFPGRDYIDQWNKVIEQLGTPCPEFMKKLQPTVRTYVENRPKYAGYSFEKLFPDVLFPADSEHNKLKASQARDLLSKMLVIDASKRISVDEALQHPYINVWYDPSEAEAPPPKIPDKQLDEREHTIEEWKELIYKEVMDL
VILSMVNNRSLDLDSI [KRT77 335-350 mut P04264.D340V]: the “mean normalised NGS count” value was 0.0913.

The target of the next experiment is T4, CHD1_tandem-chromo__O14646_268_443. The experiment is described as above. Conditions: replicate selections in which the peptide was seen: 4.
As to QRIRSTSTPNVHMVST [ARAF 208-223 wt], the “mean normalised NGS count” value is 35.6.
